# From the supplement of paper PMC8728848
# Some of the results follow.
# B1: PX14375l-pdi-526-25-526 (Parabacteroides distasonis) (protein)
# chain: DEEPKSTLTDVAYYKTQSQMESNVNYLYRTGAIGSYVDFGSAYIGPFASIQEELTGYFSNSYEGQEIVCRYTRELTRQQNTMQLASKMDKVWDDCYRGINVANGAIKHMPEVPMDQATADRLTAEAKFFRAFNYFYLVKTFGAVPFYTDPYELAENMELPRTETSTIYNQIESDLKDAMNVLPEATFAANGHRITKYVAAMTLTDVYMYQHKYAEAAETVRIVVNSNHKLTTNDDLAMNSAFNKLRSTDDLDEAIYAYEYDNQISPSNWLPTYAFDGDASSNGLFGTYAITQKVHGPNDRYLNIYESNDLRRQPNQFYHWTYTNPKTGKVWNSVGNAACCWYYYDEDALLTTGRGTKDWNVYRYAEALLDAAESIAQSTGVTAEAAGYLAQVKARANMEGKTAAEIASSLQSMGKQAFIEECWTERLRELPLEFKMWDMCVRTGMFPNISETTPGQVTYIPLVGAKNASGATIKESDLLWPLSVNEIQRNPSLTQNEGYSAK
# Experiments:
# Test in all cases: glycan array binding signal (z-score within array); higher = stronger binding
# Conditions in all cases: glycan notation: IUPAC condensed, linker removed
# Gal(b1-4)Glc = biological target: Gal(b1-4)Glc
# Procedure, shortened: (§1)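 Columns mapping to the same glycan were averaged after glycan names were converted to IUPAC-condensed notation. The data come from 3228 arrays in the Consortium for Functional Glycomics database, limited to those with an available protein sequence. Binding is reported as a within-array Z-score averaged across arrays of one protein sequence and across linkers.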
# Gal(b1-4)Glc6S = biological target: Gal(b1-4)Glc6S
# Procedure, shortened: as §1
# Gal(b1-4)GlcNAc = biological target: Gal(b1-4)GlcNAc
# Procedure, shortened: as §1
# [1] = biological target: Gal(b1-4)GlcNAc(a1-6)Gal(b1-4)GlcNAc
# Procedure, shortened: as §1
# Gal(b1-4)GlcNAc(b1-2)Man = biological target: Gal(b1-4)GlcNAc(b1-2)Man
# Procedure, shortened: as §1
# [2] = biological target: Gal(b1-4)GlcNAc(b1-2)Man(a1-3)Man(b1-4)GlcNAc(b1-4)GlcNAc
# Procedure, shortened: as §1
# [3] = biological target: Gal(b1-4)GlcNAc(b1-2)Man(a1-3)[Gal(b1-4)GlcNAc(b1-2)Man(a1-6)]Man(b1-4)GlcNAc(b1-4)GlcNAc
# Procedure, shortened: as §1
# [4] = biological target: Gal(b1-4)GlcNAc(b1-2)Man(a1-3)[Gal(b1-4)GlcNAc(b1-2)Man(a1-6)]Man(b1-4)GlcNAc(b1-4)[Fuc(a1-6)]GlcNAc
# Procedure, shortened: as §1
# [5] = biological target: Gal(b1-4)GlcNAc(b1-2)Man(a1-3)[Gal(b1-4)GlcNAc(b1-2)Man(a1-6)][Gal(b1-4)GlcNAc(b1-4)]Man(b1-4)GlcNAc(b1-4)[Fuc(a1-6)]GlcNAc
# Procedure, shortened: as §1
# [6] = biological target: Gal(b1-4)GlcNAc(b1-2)Man(a1-3)[Gal(b1-4)GlcNAc(b1-2)Man(a1-6)][GlcNAc(b1-4)]Man(b1-4)GlcNAc(b1-4)[Fuc(a1-6)]GlcNAc
# Procedure, shortened: as §1
# [7] = biological target: Gal(b1-4)GlcNAc(b1-2)Man(a1-3)[GlcNAc(b1-2)Man(a1-6)]Man(b1-4)GlcNAc(b1-4)GlcNAc
# Procedure, shortened: as §1
# [8] = biological target: Gal(b1-4)GlcNAc(b1-2)Man(a1-3)[GlcNAc(b1-4)][Gal(b1-4)GlcNAc(b1-2)Man(a1-6)]Man(b1-4)GlcNAc(b1-4)GlcNAc
# Procedure, shortened: as §1
# [9] = biological target: Gal(b1-4)GlcNAc(b1-2)Man(a1-3)[Man(a1-6)]Man(b1-4)GlcNAc(b1-4)GlcNAc
# Procedure, shortened: as §1
# [10] = biological target: Gal(b1-4)GlcNAc(b1-2)Man(a1-6)Man(b1-4)GlcNAc(b1-4)GlcNAc
# Procedure, shortened: as §1
# [11] = biological target: Gal(b1-4)GlcNAc(b1-2)Man(a1-6)[GlcNAc(b1-2)Man(a1-3)]Man(b1-4)GlcNAc(b1-4)GlcNAc
# Procedure, shortened: as §1
# [12] = biological target: Gal(b1-4)GlcNAc(b1-2)Man(a1-6)[Man(a1-3)]Man(b1-4)GlcNAc(b1-4)GlcNAc
# Procedure, shortened: as §1
# [13] = biological target: Gal(b1-4)GlcNAc(b1-2)[Gal(b1-4)GlcNAc(b1-4)]Man(a1-3)[Gal(b1-4)GlcNAc(b1-2)Man(a1-6)]Man(b1-4)GlcNAc(b1-4)GlcNAc
# Procedure, shortened: as §1
# [14] = biological target: Gal(b1-4)GlcNAc(b1-2)[Gal(b1-4)GlcNAc(b1-4)]Man(a1-3)[Gal(b1-4)GlcNAc(b1-2)[Gal(b1-4)GlcNAc(b1-6)]Man(a1-6)]Man(b1-4)GlcNAc(b1-4)GlcNAc
# Procedure, shortened: as §1
# [15] = biological target: Gal(b1-4)GlcNAc(b1-2)[Gal(b1-4)GlcNAc(b1-4)]Man(a1-3)[GlcNAc(b1-4)][Gal(b1-4)GlcNAc(b1-2)Man(a1-6)]Man(b1-4)GlcNAc(b1-4)GlcNAc
# Procedure, shortened: as §1
# [16] = biological target: Gal(b1-4)GlcNAc(b1-2)[Gal(b1-4)GlcNAc(b1-4)]Man(a1-3)[GlcNAc(b1-4)][Gal(b1-4)GlcNAc(b1-2)[Gal(b1-4)GlcNAc(b1-6)]Man(a1-6)]Man(b1-4)GlcNAc(b1-4)GlcNAc
# Procedure, shortened: as §1
# [17] = biological target: Gal(b1-4)GlcNAc(b1-2)[Gal(b1-4)GlcNAc(b1-6)]Man(a1-6)[Gal(b1-4)GlcNAc(b1-2)Man(a1-3)]Man(b1-4)GlcNAc(b1-4)GlcNAc
# Procedure, shortened: as §1
# [18] = biological target: Gal(b1-4)GlcNAc(b1-2)[Gal(b1-4)GlcNAc(b1-6)]Man(a1-6)[Gal(b1-4)GlcNAc(b1-2)Man(a1-3)]Man(b1-4)GlcNAc(b1-4)[Fuc(a1-6)]GlcNAc
# Procedure, shortened: as §1
# [19] = biological target: Gal(b1-4)GlcNAc(b1-2)[Gal(b1-4)GlcNAc(b1-6)]Man(a1-6)[GlcNAc(b1-4)][Gal(b1-4)GlcNAc(b1-2)Man(a1-3)]Man(b1-4)GlcNAc(b1-4)GlcNAc
# Procedure, shortened: as §1
# [20] = biological target: Gal(b1-4)GlcNAc(b1-2)[Gal(b1-4)GlcNAc(b1-6)]Man(a1-6)[GlcNAc(b1-4)][Gal(b1-4)GlcNAc(b1-2)[Gal(b1-4)GlcNAc(b1-4)]Man(a1-3)]Man(b1-4)GlcNAc(b1-4)[Fuc(a1-6)]GlcNAc
# Procedure, shortened: as §1
# [21] = biological target: Gal(b1-4)GlcNAc(b1-3)Gal(b1-3)GalNAc
# Procedure, shortened: as §1
# [22] = biological target: Gal(b1-4)GlcNAc(b1-3)Gal(b1-3)GlcNAc
# Procedure, shortened: as §1
# [23] = biological target: Gal(b1-4)GlcNAc(b1-3)Gal(b1-4)Glc
# Procedure, shortened: as §1
# [24] = biological target: Gal(b1-4)GlcNAc(b1-3)Gal(b1-4)GlcNAc
# Procedure, shortened: as §1
# [25] = biological target: Gal(b1-4)GlcNAc(b1-3)Gal(b1-4)GlcNAc(b1-2)Man(a1-3)[Gal(b1-4)GlcNAc(b1-3)Gal(b1-4)GlcNAc(b1-2)Man(a1-6)]Man(b1-4)GlcNAc(b1-4)GlcNAc
# Procedure, shortened: as §1
# [26] = biological target: Gal(b1-4)GlcNAc(b1-3)Gal(b1-4)GlcNAc(b1-2)Man(a1-3)[Gal(b1-4)GlcNAc(b1-3)Gal(b1-4)GlcNAc(b1-2)Man(a1-6)]Man(b1-4)GlcNAc(b1-4)[Fuc(a1-6)]GlcNAc
# Procedure, shortened: as §1
# [27] = biological target: Gal(b1-4)GlcNAc(b1-3)Gal(b1-4)GlcNAc(b1-2)[Gal(b1-4)GlcNAc(b1-3)Gal(b1-4)GlcNAc(b1-6)]Man(a1-6)[Gal(b1-4)GlcNAc(b1-3)Gal(b1-4)GlcNAc(b1-2)Man(a1-3)]Man(b1-4)GlcNAc(b1-4)GlcNAc
# Procedure, shortened: as §1
# [28] = biological target: Gal(b1-4)GlcNAc(b1-3)Gal(b1-4)GlcNAc(b1-2)[Gal(b1-4)GlcNAc(b1-3)Gal(b1-4)GlcNAc(b1-6)]Man(a1-6)[Gal(b1-4)GlcNAc(b1-3)Gal(b1-4)GlcNAc(b1-2)Man(a1-3)]Man(b1-4)GlcNAc(b1-4)[Fuc(a1-6)]GlcNAc
# Procedure, shortened: as §1
# [29] = biological target: Gal(b1-4)GlcNAc(b1-3)Gal(b1-4)GlcNAc(b1-3)Gal(b1-4)GlcNAc
# Procedure, shortened: as §1
# [30] = biological target: Gal(b1-4)GlcNAc(b1-3)Gal(b1-4)GlcNAc(b1-3)Gal(b1-4)GlcNAc(b1-2)Man(a1-3)[Gal(b1-4)GlcNAc(b1-3)Gal(b1-4)GlcNAc(b1-3)Gal(b1-4)GlcNAc(b1-2)Man(a1-6)]Man(b1-4)GlcNAc(b1-4)GlcNAc
# Procedure, shortened: as §1
# [31] = biological target: Gal(b1-4)GlcNAc(b1-3)Gal(b1-4)GlcNAc(b1-3)Gal(b1-4)GlcNAc(b1-2)Man(a1-3)[Gal(b1-4)GlcNAc(b1-3)Gal(b1-4)GlcNAc(b1-3)Gal(b1-4)GlcNAc(b1-2)Man(a1-6)]Man(b1-4)GlcNAc(b1-4)[Fuc(a1-6)]GlcNAc
# Procedure, shortened: as §1
# [32] = biological target: Gal(b1-4)GlcNAc(b1-3)Gal(b1-4)GlcNAc(b1-3)Gal(b1-4)GlcNAc(b1-2)[Gal(b1-4)GlcNAc(b1-3)Gal(b1-4)GlcNAc(b1-3)Gal(b1-4)GlcNAc(b1-6)]Man(a1-6)[Gal(b1-4)GlcNAc(b1-3)Gal(b1-4)GlcNAc(b1-3)Gal(b1-4)GlcNAc(b1-2)Man(a1-3)]Man(b1-4)GlcNAc(b1-4)[Fuc(a1-6)]GlcNAc
# Procedure, shortened: as §1
# [33] = biological target: Gal(b1-4)GlcNAc(b1-3)Gal(b1-4)GlcNAc(b1-3)Gal(b1-4)GlcNAc(b1-3)Gal(b1-4)GlcNAc(b1-2)Man(a1-3)[Gal(b1-4)GlcNAc(b1-3)Gal(b1-4)GlcNAc(b1-3)Gal(b1-4)GlcNAc(b1-3)Gal(b1-4)GlcNAc(b1-2)Man(a1-6)]Man(b1-4)GlcNAc(b1-4)GlcNAc
# Procedure, shortened: as §1
binder,measurement,setting,value
B1,glycan array binding signal (z-score),Gal(b1-4)Glc,-0.278
same,glycan array binding signal (z-score),Gal(b1-4)Glc6S,0.008
same,glycan array binding signal (z-score),Gal(b1-4)GlcNAc,-0.278
same,glycan array binding signal (z-score),[1],-0.208
same,glycan array binding signal (z-score),Gal(b1-4)GlcNAc(b1-2)Man,-0.261
same,glycan array binding signal (z-score),[2],-0.24
same,glycan array binding signal (z-score),[3],0.095
same,glycan array binding signal (z-score),[4],0.272
same,glycan array binding signal (z-score),[5],0.887
same,glycan array binding signal (z-score),[6],-0.272
same,glycan array binding signal (z-score),[7],0.478
same,glycan array binding signal (z-score),[8],-0.265
same,glycan array binding signal (z-score),[9],-0.408
same,glycan array binding signal (z-score),[10],-0.54
same,glycan array binding signal (z-score),[11],0.643
same,glycan array binding signal (z-score),[12],0.071
same,glycan array binding signal (z-score),[13],-0.294
same,glycan array binding signal (z-score),[14],-0.304
same,glycan array binding signal (z-score),[15],-0.115
same,glycan array binding signal (z-score),[16],3.87
same,glycan array binding signal (z-score),[17],-0.168
same,glycan array binding signal (z-score),[18],-0.202
same,glycan array binding signal (z-score),[19],-0.253
same,glycan array binding signal (z-score),[20],-0.015
same,glycan array binding signal (z-score),[21],0.063
same,glycan array binding signal (z-score),[22],-0.16
same,glycan array binding signal (z-score),[23],0.067
same,glycan array binding signal (z-score),[24],-0.355
same,glycan array binding signal (z-score),[25],1.38
same,glycan array binding signal (z-score),[26],4.03
same,glycan array binding signal (z-score),[27],4.11
same,glycan array binding signal (z-score),[28],0.091
same,glycan array binding signal (z-score),[29],-0.142
same,glycan array binding signal (z-score),[30],1.72
same,glycan array binding signal (z-score),[31],1.17
same,glycan array binding signal (z-score),[32],0.18
same,glycan array binding signal (z-score),[33],16.7
